Reference: PubChem BioAssay AID1745845 (National Center for Advancing Translational Sciences (NCATS), 2022)
Several values for one entry are separate records, joined by “and”; a condition that tells them apart may be missing. Equal entries are not always repeated. The whole screen tested about 360,000 compounds, of which about 2,600 (0.72%) were called active. The inconclusive results got no clear call from the source; some entries with a clear call stand among them for comparison. Calls come from the whole dose curve; as a rule, active = well fitted inhibition curve with a large enough effect; inconclusive = small, poorly fitted or top-dose-only effect; inactive = no such curve, though single readings can be large or run the other way. Where the call is inconclusive, the potency comes from a doubtful curve fit.

Experiment: Primary qHTS for Inhibitors of ATXN expression; note: nearly all actives have a fitted effect of over 55% in size
Details: HEK-293 ATXN2-luciferase reporter, luminescence, 24 h; activity change, negative = inhibition: at 57 µM (top of the series)
Procedure, shortened: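 qHTS (up to 57 uM final) was run with 24 h compound exposure of reporter cells at 37 °C. Each well was multiplexed: SteadyGlo luminescence measured ATXN2-luciferase expression after a fluorogenic Gly-Phe-AFC viability readout (25 uM final).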
% is set by controls: 0 for no effect and ±100 for the full control effect; potency is the fitted concentration of half-maximal effect; tags give direction and shape of the fitted curve.

SMILES | Potency | activity change, negative = inhibition
Cc1ccc2c(=O)n3c(nc2c1)C(Cc1ccc(O)cc1)NC(=O)c1cc2ccccc2cc1-3 (configuration not stated) | inconclusive: 35.5 µM [inhibitor, partial curve, poor fit] | 
Cc1cc(OCc2ccc(C(=O)NN=C3CCCC3)cc2)ccc1Cl | inconclusive: 25.1 µM [inhibitor, partial curve, poor fit] | 
CCCN1C(=O)/C(=C/c2c(NCCCOCC)nc3c(C)cccn3c2=O)SC1=S | inconclusive: 28.2 µM [inhibitor, partial curve, poor fit] | 
CCn1c(SCC(=O)N2CCN(c3ccccc3)CC2)nc2c(c1=O)SC(C)C2 (configuration not stated) | inconclusive: 10.6 µM [inhibitor, partial curve] | 
COC(=O)c1cc(NS(=O)(=O)c2ccc(N3CCOCC3)c(N)c2)cc(C(=O)OC)c1 |  | inactive: -3.69%
Brc1ccc(/C=N/Nc2ncnc3c2cnn3Cc2ccccc2)cc1 | inconclusive: 20 µM [inhibitor, single point] | 
CCOC(=O)c1c(C)oc2c1c(C=NCc1ccccn1)c(O)c1ccccc12 | inconclusive: 25.1 µM [inhibitor, single point] | 
O=C(Nc1nc(-c2ccccn2)cs1)c1ccc(-c2ccccc2F)o1 | inconclusive: 39.8 µM [inhibitor, single point] | 
CC(=O)Nc1nc2ccccc2n1CCN1CCOCC1 |  | inactive: 3.84%
O=c1c(Cc2ccc(Cl)cc2)c(O)ccn1Cc1ccccc1 | inconclusive: 20 µM [inhibitor, partial curve, poor fit] | 
O=C1COc2ccc(-c3cc(-c4ccc(F)cc4)c4c(n3)-c3cc(Cl)ccc3OC4)cc2N1 |  | inactive: -0.536%
CCN(CC)c1ccc(/C=N/NC(=O)c2cccc(S(=O)(=O)Nc3ccccc3OC)c2)c(O)c1 | inconclusive: 2.67 µM [inhibitor, full curve, poor fit] | 
O=C(Nc1ccccc1C(F)(F)F)c1ccc(CN2CCC(Cc3ccccc3)CC2)cc1 |  | inactive: -15.6%
COc1cc(/C=C(/C(=O)c2cccs2)c2nc3ccccc3[nH]2)cc(OC)c1O | inconclusive: 39.8 µM [inhibitor, single point] | 
O=C1C=C(c2ccc(C(=O)O)cc2)C[C@@H](c2ccc(F)cc2)C1 |  | inactive: 75.6%
O=C(NCCn1cc(SCc2ccccc2F)c2ccccc21)c1cccs1 | inconclusive: 39.8 µM [inhibitor, single point] | 
COC(=O)[C@@]1(Sc2ccc(C)cc2)CC(=O)N(c2ccccc2)[C@@H]1c1ccccc1 | inconclusive: 15.8 µM [inhibitor, partial curve, poor fit] | 
COC(=O)Cc1c(C)c2ccc(OCC(=O)c3ccc(OC)c(OC)c3)cc2oc1=O | inconclusive: 2.51 µM [inhibitor, partial curve, poor fit] | 
O=C(Nc1nc(-c2ccc3c(c2)OCO3)cs1)C1COc2ccccc2O1 (configuration not stated) |  | inactive: 24.7%
CCc1ccccc1NC(=S)N1CCCCCC1 |  | inactive: -8%
CSc1ccccc1NC(=O)Nc1ccc(Cl)cc1 | inconclusive: 39.8 µM [inhibitor, single point] | 
CN(C)c1ccc(/C=C/c2nc3ccccc3s2)cc1 | inconclusive: 10 µM [inhibitor, partial curve, poor fit] | 
CC(C)(C)c1cc(CCC(=O)NCCc2ccccn2)cc(C(C)(C)C)c1O |  | inactive: -0.599%

SMILES | Potency | activity change, negative = inhibition
CCc1nc2ccc(C(=O)Nc3cccc(NS(C)(=O)=O)c3)cn2c1N(CCC(C)C)CCN(C)C |  | inactive: -10.4%
CCNC(=S)NN(c1ccccc1)c1ccccc1 |  | inactive: -5.6%
CC(C)(C)n1nnnc1C(c1ccccn1)N(Cc1ccccc1)Cc1ccc(Cl)cc1 (configuration not stated) | inconclusive: 28.2 µM [inhibitor, partial curve, poor fit] | 
Cc1ccc(S(=O)(=O)Nc2cc(=O)[nH]c(SCc3ccccc3Cl)n2)cc1 | inconclusive: 39.8 µM [inhibitor, single point] | 
CCC(C(=O)OCC(=O)C1(O)CCC2C3CCC4=CC(=O)CCC4(C)C3C(O)CC21C)C(C)C (configuration not stated) | inconclusive: 14.1 µM [inhibitor, single point] | 
CC1(C)C=Cc2c(c3c(c4c(=O)c(-c5ccc(O)cc5)coc24)OC(C)(C)CC3)O1 | inconclusive: 25.1 µM [inhibitor, single point] | 
CC1CN(S(=O)(=O)c2ccc(C(=O)Nc3nnc(-c4ccc5c(c4)CCCC5)o3)cc2)CC(C)O1 (configuration not stated) | inconclusive: 31.6 µM [inhibitor, partial curve, poor fit] | 
COc1cccc(C2NC(=O)c3n[nH]c(-c4cccs4)c32)c1 (configuration not stated) |  | inactive: 1.29%
CC(C)Nc1cc(C(F)(F)F)cc2nc(NC(=O)c3cccnc3)nn12 | inconclusive: 1.93 µM [inhibitor, partial curve, poor fit] | 
Cc1ccc(Cl)cc1NS(=O)(=O)c1ccc2c(c1)NC(=O)CCS2 | inconclusive: 39.8 µM [inhibitor, partial curve, poor fit] | 
O=C(CCS(=O)(=O)Cc1ccc(Cl)cc1)NCCc1ccccc1 |  | inactive: 3.11%
COc1ccc(C)cc1NC(=O)c1nnn(Cc2cccc(F)c2)c1N | inconclusive: 2.51 µM [inhibitor, full curve] | 
COc1ccc(NC(=O)c2sc3ncnc(N4CCN(c5ccccn5)CC4)c3c2C)cc1Cl | inconclusive: 6.31 µM [inhibitor, full curve, poor fit] | 
O=C(NN=Cc1ccccc1O)C(O)(c1ccccc1)c1ccccc1 | inconclusive: 16.8 µM [inhibitor, partial curve, poor fit] | 
CCCc1c(-c2ccc(F)cc2)ncn1CCc1ccccc1OC | inconclusive: 20 µM [inhibitor, single point] | 
OCCN(CCO)c1ccc(C(c2ccccc2Cl)c2ccc(N(CCO)CCO)cc2Cl)c(Cl)c1 | inconclusive: 39.8 µM [inhibitor, single point] | 
COc1ccc(-c2cc(CCC(=O)N3CCN(c4cc(C)ccc4C)CC3)on2)cc1 | inconclusive: 31.6 µM [inhibitor, partial curve, poor fit] | 
CC(O)CNCc1ccccc1C(F)(F)F (configuration not stated) |  | inactive: 1.23%
COc1cccc(CC2(CO)CCCN(Cc3[nH]c4ccc(C)cc4c3C)C2)c1 (configuration not stated) | active: 25.1 µM | 
Cc1oc2ccc(O)c(CN3CCCC3)c2c1C(=O)Nc1ccccc1 |  | inactive: -12%
NS(=O)(=O)c1ccc(N2N=C(c3ccccc3)CC2c2cccc(Cl)c2)cc1 (configuration not stated) | inconclusive: 39.8 µM [inhibitor, single point] | 
CCc1ccc(C(=O)c2cnc3ccc(F)cc3c2S(=O)(=O)c2ccccc2)cc1 | inconclusive: 31.6 µM [inhibitor, single point] | 
O=C(c1cc(Cc2n[nH]c(=O)c3ccccc23)ccc1F)N1CCN(C(=O)C2CC2)CC1 | inconclusive: 5.44 µM [inhibitor, partial curve, poor fit] | 

SMILES | Potency | activity change, negative = inhibition
O=c1cc(C(F)(F)F)[nH]c2ccc(C(F)(F)F)cc12 | inconclusive: 37.7 µM [inhibitor, single point] | 
COCCOC(=O)C1=C(C)NC2=C(C(=O)CC(c3ccccc3OC)C2)C1c1cccc(O)c1 (configuration not stated) |  | inactive: 85.1%
CCn1c(CNc2ccccc2Cl)nnc1SCCN1CCCCC1 |  | inactive: -4.68%
Nc1c(C(=O)NCCN2CCOCC2)c2nc3ccccc3nc2n1CCc1ccccc1F | inconclusive: 22.4 µM [inhibitor, single point] | 
Cc1cccc(NC(=O)c2cc(N3CCOCC3)nc3ccccc23)c1 |  | inactive: 13.7%
CCOc1cc(/C=C(/NC(C)=O)C(=O)O)cc(Cl)c1OCc1cccc(Br)c1 |  | inactive: 6.51%
O=C(O)c1cc2cccc(S(=O)(=O)N3CCOCC3)c2cc1O |  | inactive: 1.41%
CC(=O)NC(c1cc(F)c2cccnc2c1O)C1CC1 (configuration not stated) | inconclusive: 35.5 µM [inhibitor, single point] | 
Cc1ccc(C)c(NC(=O)CCC(=O)N/N=C/c2cc([N+](=O)[O-])ccc2O)c1 | inconclusive: 31.6 µM [inhibitor, single point] | 
COc1cccc(C(=O)NCCc2csc(-c3ccc(Cl)cc3)n2)c1 | inconclusive: 31.6 µM [inhibitor, single point] | 
CCOC(=O)C1CCN(C(=O)c2ccc(OCC(=O)Nc3cccc(C(F)(F)F)c3)c(OC)c2)CC1 | inconclusive: 17.8 µM [inhibitor, partial curve, poor fit] | 
CCc1nc2ccc(C(=O)NCCOc3ccc(OC)cc3)cn2c1N(C)CCCc1ccccc1 | inconclusive: 39.8 µM [inhibitor, single point] | 
Nc1cc(-c2cccc(Br)c2)nn1Cc1ccccc1 |  | inactive: 3.57%
COc1cc(C2NC(=O)c3c(sc4c3CCN(C)C4)N2)cc(Br)c1OC(=O)c1ccc(C)cc1 (configuration not stated) |  | inactive: -2.4%
CC(=O)N1CCc2cc(NC(=O)C3(C)CCN3CCc3ccccc3)ccc21 (configuration not stated) |  | inactive: -35.4%
Cc1sc2nc(C(C)C)nc(SCC(=O)N3CCN(C(=O)c4ccco4)CC3)c2c1C | active: 31.6 µM | 
COC(=O)c1cc2sc(Cl)cc2n1Cc1c(C)cc(C)cc1C |  | inactive: 3.45%
COc1ccc(F)cc1-c1cc(C(=O)NCc2ccc(C(F)(F)F)cc2)[nH]n1 | inconclusive: 20 µM [inhibitor, partial curve, poor fit] | 
COc1ccc(C(=O)NCCn2cc(SCC(=O)Nc3ccc(C)cc3)c3ccccc32)cc1 | inconclusive: 39.8 µM [inhibitor, single point] | 
CCCCCOC(=O)C1=C(C)NC(=O)NC1c1ccccc1 (configuration not stated) |  | inactive: 13%
OCCN1CCN(CCCN2c3ccccc3Sc3ccc(C(F)(F)F)cc32)CC1 | inconclusive: 24.3 µM [inhibitor, partial curve] and active: 28.2 µM and inconclusive: 25.1 µM [inhibitor, single point] | 
